In the supplement of paper PMC8728848:
The other results are listed elsewhere or left out.

Assays:
Assay in all cases: glycan array binding signal (z-score within array); higher = stronger binding
Settings in all cases: glycan notation: IUPAC condensed, linker removed
[1] = molecular target: GlcNAc(a1-6)Gal(b1-4)GlcNAc
Procedure, shortened: (§1)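 Columns mapping to the same glycan were averaged after glycan names were converted to IUPAC-condensed notation. The data come from 3228 arrays in the Consortium for Functional Glycomics database, limited to those with an available protein sequence. Binding is reported as a within-array Z-score averaged across arrays of one protein sequence and across linkers.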

[2] = molecular target: GlcNAc(b1-2)Gal(b1-3)GalNAc
Procedure, shortened: as §1

[3] = molecular target: GlcNAc(b1-2)Man(a1-3)[GlcNAc(b1-2)Man(a1-6)]Man(b1-4)GlcNAc(b1-4)GlcNAc
Procedure, shortened: as §1

[4] = molecular target: GlcNAc(b1-2)Man(a1-3)[GlcNAc(b1-2)Man(a1-6)]Man(b1-4)GlcNAc(b1-4)[Fuc(a1-6)]GlcNAc
Procedure, shortened: as §1

[5] = molecular target: GlcNAc(b1-2)Man(a1-3)[GlcNAc(b1-4)][GlcNAc(b1-2)Man(a1-6)]Man(b1-4)GlcNAc(b1-4)GlcNAc
Procedure, shortened: as §1

[6] = molecular target: GlcNAc(b1-2)Man(a1-3)[GlcNAc(b1-4)][GlcNAc(b1-2)Man(a1-6)]Man(b1-4)GlcNAc(b1-4)[Fuc(a1-6)]GlcNAc
Procedure, shortened: as §1

[7] = molecular target: GlcNAc(b1-2)[GlcNAc(b1-4)]Man(a1-3)[GlcNAc(b1-2)Man(a1-6)]Man(b1-4)GlcNAc(b1-4)GlcNAc
Procedure, shortened: as §1

[8] = molecular target: GlcNAc(b1-2)[GlcNAc(b1-4)]Man(a1-3)[GlcNAc(b1-4)][GlcNAc(b1-2)Man(a1-6)]Man(b1-4)GlcNAc(b1-4)GlcNAc
Procedure, shortened: as §1

[9] = molecular target: GlcNAc(b1-2)[GlcNAc(b1-4)]Man(a1-3)[GlcNAc(b1-4)][GlcNAc(b1-2)[GlcNAc(b1-6)]Man(a1-6)]Man(b1-4)GlcNAc(b1-4)GlcNAc
Procedure, shortened: as §1

[10] = molecular target: GlcNAc(b1-2)[GlcNAc(b1-4)]Man(a1-3)[GlcNAc(b1-4)][GlcNAc(b1-2)[GlcNAc(b1-6)]Man(a1-6)]Man(b1-4)GlcNAc(b1-4)[Fuc(a1-6)]GlcNAc
Procedure, shortened: as §1

[11] = molecular target: GlcNAc(b1-2)[GlcNAc(b1-6)]Man(a1-6)[GlcNAc(b1-2)Man(a1-3)]Man(b1-4)GlcNAc(b1-4)GlcNAc
Procedure, shortened: as §1

[12] = molecular target: GlcNAc(b1-2)[GlcNAc(b1-6)]Man(a1-6)[GlcNAc(b1-2)Man(a1-3)]Man(b1-4)GlcNAc(b1-4)[Fuc(a1-6)]GlcNAc
Procedure, shortened: as §1

[13] = molecular target: GlcNAc(b1-2)[GlcNAc(b1-6)]Man(a1-6)[GlcNAc(b1-4)][GlcNAc(b1-2)Man(a1-3)]Man(b1-4)GlcNAc(b1-4)GlcNAc
Procedure, shortened: as §1

[14] = molecular target: GlcNAc(b1-3)Fuc
Procedure, shortened: as §1

[15] = molecular target: GlcNAc(b1-3)Gal
Procedure, shortened: as §1

[16] = molecular target: GlcNAc(b1-3)Gal(b1-3)GalNAc
Procedure, shortened: as §1

[17] = molecular target: GlcNAc(b1-3)Gal(b1-4)Glc
Procedure, shortened: as §1

[18] = molecular target: GlcNAc(b1-3)Gal(b1-4)GlcNAc
Procedure, shortened: as §1

[19] = molecular target: GlcNAc(b1-3)Gal(b1-4)GlcNAc(b1-2)Man(a1-3)[GlcNAc(b1-3)Gal(b1-4)GlcNAc(b1-2)Man(a1-6)]Man(b1-4)GlcNAc(b1-4)GlcNAc
Procedure, shortened: as §1

[20] = molecular target: GlcNAc(b1-3)Gal(b1-4)GlcNAc(b1-2)Man(a1-3)[GlcNAc(b1-3)Gal(b1-4)GlcNAc(b1-2)Man(a1-6)]Man(b1-4)GlcNAc(b1-4)[Fuc(a1-6)]GlcNAc
Procedure, shortened: as §1

[21] = molecular target: GlcNAc(b1-3)Gal(b1-4)GlcNAc(b1-2)[GlcNAc(b1-3)Gal(b1-4)GlcNAc(b1-6)]Man(a1-6)[GlcNAc(b1-3)Gal(b1-4)GlcNAc(b1-2)Man(a1-3)]Man(b1-4)GlcNAc(b1-4)GlcNAc
Procedure, shortened: as §1

[22] = molecular target: GlcNAc(b1-3)Gal(b1-4)GlcNAc(b1-3)Gal(b1-4)GlcNAc
Procedure, shortened: as §1

[23] = molecular target: GlcNAc(b1-3)Gal(b1-4)GlcNAc(b1-3)Gal(b1-4)GlcNAc(b1-2)Man(a1-3)[GlcNAc(b1-3)Gal(b1-4)GlcNAc(b1-3)Gal(b1-4)GlcNAc(b1-2)Man(a1-6)]Man(b1-4)GlcNAc(b1-4)GlcNAc
Procedure, shortened: as §1

[24] = molecular target: GlcNAc(b1-3)Gal(b1-4)GlcNAc(b1-3)Gal(b1-4)GlcNAc(b1-2)Man(a1-3)[GlcNAc(b1-3)Gal(b1-4)GlcNAc(b1-3)Gal(b1-4)GlcNAc(b1-2)Man(a1-6)]Man(b1-4)GlcNAc(b1-4)[Fuc(a1-6)]GlcNAc
Procedure, shortened: as §1

[25] = molecular target: GlcNAc(b1-3)Gal(b1-4)GlcNAc(b1-3)Gal(b1-4)GlcNAc(b1-2)[GlcNAc(b1-3)Gal(b1-4)GlcNAc(b1-3)Gal(b1-4)GlcNAc(b1-6)]Man(a1-6)[GlcNAc(b1-3)Gal(b1-4)GlcNAc(b1-3)Gal(b1-4)GlcNAc(b1-2)Man(a1-3)]Man(b1-4)GlcNAc(b1-4)[Fuc(a1-6)]GlcNAc
Procedure, shortened: as §1

[26] = molecular target: GlcNAc(b1-3)Gal(b1-4)GlcNAc(b1-3)Gal(b1-4)GlcNAc(b1-3)Gal(b1-4)GlcNAc(b1-2)Man(a1-3)[GlcNAc(b1-3)Gal(b1-4)GlcNAc(b1-3)Gal(b1-4)GlcNAc(b1-3)Gal(b1-4)GlcNAc(b1-2)Man(a1-6)]Man(b1-4)GlcNAc(b1-4)GlcNAc
Procedure, shortened: as §1

[27] = molecular target: GlcNAc(b1-3)Gal(b1-4)GlcNAc(b1-3)Gal(b1-4)GlcNAc(b1-3)Gal(b1-4)GlcNAc(b1-2)Man(a1-3)[GlcNAc(b1-3)Gal(b1-4)GlcNAc(b1-3)Gal(b1-4)GlcNAc(b1-3)Gal(b1-4)GlcNAc(b1-2)Man(a1-6)]Man(b1-4)GlcNAc(b1-4)[Fuc(a1-6)]GlcNAc
Procedure, shortened: as §1

[28] = molecular target: GlcNAc(b1-3)Gal(b1-4)GlcNAc(b1-3)Gal(b1-4)GlcNAc(b1-3)Gal(b1-4)GlcNAc(b1-2)[GlcNAc(b1-3)Gal(b1-4)GlcNAc(b1-3)Gal(b1-4)GlcNAc(b1-3)Gal(b1-4)GlcNAc(b1-6)]Man(a1-6)[GlcNAc(b1-3)Gal(b1-4)GlcNAc(b1-3)Gal(b1-4)GlcNAc(b1-3)Gal(b1-4)GlcNAc(b1-2)Man(a1-3)]Man(b1-4)GlcNAc(b1-4)[Fuc(a1-6)]GlcNAc
Procedure, shortened: as §1

[29] = molecular target: GlcNAc(b1-3)Gal(b1-4)GlcNAc(b1-3)Gal(b1-4)GlcNAc(b1-3)Gal(b1-4)GlcNAc(b1-3)Gal(b1-4)GlcNAc(b1-2)Man(a1-3)[GlcNAc(b1-3)Gal(b1-4)GlcNAc(b1-3)Gal(b1-4)GlcNAc(b1-3)Gal(b1-4)GlcNAc(b1-3)Gal(b1-4)GlcNAc(b1-2)Man(a1-6)]Man(b1-4)GlcNAc(b1-4)GlcNAc
Procedure, shortened: as §1

[30] = molecular target: GlcNAc(b1-3)Gal(b1-4)GlcNAc(b1-3)Gal(b1-4)GlcNAc(b1-3)Gal(b1-4)GlcNAc(b1-3)Gal(b1-4)GlcNAc(b1-2)Man(a1-3)[GlcNAc(b1-3)Gal(b1-4)GlcNAc(b1-3)Gal(b1-4)GlcNAc(b1-3)Gal(b1-4)GlcNAc(b1-3)Gal(b1-4)GlcNAc(b1-2)Man(a1-6)]Man(b1-4)GlcNAc(b1-4)[Fuc(a1-6)]GlcNAc
Procedure, shortened: as §1

B1: a L Fucosidase (Streptosporangium roseum), D2B1P1_STRRD (protein)
chain: MRRKLLLVPAVGLLVIGSIFATQPVASADTPPVYEPTVESLNSHPVPQWFNDDKFGIFIHWGAYSVPAWGPRGSYAEWYGNYMNAGGSATNAHHKATYGQDFNYDAFLQQWKAEKFDPADWVKLFKDAGAKYFVLTSKHHEGMALWDSKSSGRDSVDLGPGRDLAKELFDAARKDEAKLKAGFYYSLYEWYNPAYTGRPATNPYTGAEIPYTGAPGGGDYVKDYMLPQMRELIDGYDPDIIWCDGQWEKPASYWNTAGVIADYYNKALNSGKEVAVANRCKIQSGNLDSPELDFQTPEYTVKPDIDPVKWESSRGIAHSYGYNQNEPEEDHLTSDQLVDSLVDIVSKNGNLLLDIGPKADGTIPEIQRQRLLDIGAWLKANGEAIYGTTYWNRAEEKGGPDDVRYTAKDATLYATALKWPGEQLTLGADLPVDHSTRITMLGSGARLSWSRDEQGRVVVNTPQEAGKHAYVFKIETPGVRSLLRTSSSLAKEIAPGRTISGELTVTNPGKRHTPATKLSLTVPQGWTATLGAPRVRPLGPGESVKVPISVSAPEGVAPAPYTLGLYQRTGRMGTTTALPLTVNRPNLSLGKPATQKSTGYDAPASRAVDGNTGGDWSAGSTTHTAEPEKQAWWQVDLGASARLDSVDVWNRLDCCADRLKDFWVMASDQPFTTDDLDQARTAPGVTAVHVGEQAGSPSKVKLPEGTRGRYVRIQLASPSNPLSLAEVQVRGSMARPNLSLGKPATQKSTGYDAPASRAVDGNTGGDWSAGSTTHTAEPEKQAWWQVDLGASARLDSVDVWNRLDCCADRLKDFWVMASDQPFTTDDLDQARTAPGVTAVHVGEQAGSPSKVKLPEGTRGRYVRIQLASPSNPLSLAEVQVRLEHHHHHHS
glycan array binding signal (z-score) [1]: -0.568
glycan array binding signal (z-score) [2]: -0.268
glycan array binding signal (z-score) [3]: -0.028
glycan array binding signal (z-score) [4]: -0.293
glycan array binding signal (z-score) [5]: 0.037
glycan array binding signal (z-score) [6]: 1.22
glycan array binding signal (z-score) [7]: -0.412
glycan array binding signal (z-score) [8]: -0.459
glycan array binding signal (z-score) [9]: -0.285
glycan array binding signal (z-score) [10]: 2.27
glycan array binding signal (z-score) [11]: -0.092
glycan array binding signal (z-score) [12]: -0.341
glycan array binding signal (z-score) [13]: -0.458
glycan array binding signal (z-score) [14]: 2.71
glycan array binding signal (z-score) [15]: -0.578
glycan array binding signal (z-score) [16]: -0.451
glycan array binding signal (z-score) [17]: -0.391
glycan array binding signal (z-score) [18]: -0.466
glycan array binding signal (z-score) [19]: -0.456
glycan array binding signal (z-score) [20]: 0.263
glycan array binding signal (z-score) [21]: -0.438
glycan array binding signal (z-score) [22]: -0.352
glycan array binding signal (z-score) [23]: 0.743
glycan array binding signal (z-score) [24]: -0.076
glycan array binding signal (z-score) [25]: -0.496
glycan array binding signal (z-score) [26]: -0.507
glycan array binding signal (z-score) [27]: -0.03
glycan array binding signal (z-score) [28]: -0.512
glycan array binding signal (z-score) [29]: -0.413
glycan array binding signal (z-score) [30]: 1.09
